# Experimental data reported in patent publication US12291562B2, “Reagents and assays using modified integrin domains” (Rush University Medical Center, priority 2019, dated 2025).
# B1: Clone 2: scFv phage clone, VL-Linker-VH, SEQ ID NO: 61 (protein)
# scFv: SSELTQDPAVSVALGQTVRITCQGDSLRSYYASWYQQKPGQAPVLVIYGKNNRPSGIPDRFSGSSSGNTASLTITGAQAEDEADYYCNSRDSSGNHLVFGGGTKLTVLGEGKSSGSGSESKAS[about 100 residues not listed]YMVRGGGIDYWGQGTLVTVSS
# modifications: Clone 2
# Tests used:
# [1] = Phage ELISA on blocked well; type: binding; details: Table 5, scFv phage diluted 1:5
# Method: (§1) After 2 rounds of enrichment against the primary target, positive binders were identified by phage ELISA and analyzed by restriction mapping & sequencing for identification of unique clones. Small scale phage growths were diluted 1:5 in TBS+casein. Nunc Maxi-Sorp strip wells were coated at ˜5 μg/ml of each test protein overnight at 4° C. and blocked with TBS+casein. The diluted phage were applied and allowed to bind for 1 hour with shaking. The wells were washed 4 times with TBS+0.05% Tween20 and twice with TBS. Bound phage were detected by incubation for 1 hour with anti-M13-HRP and after washing as above, developed with TMB. Absorbance at 450 nm was read after acidification of the wells.
# [2] = test system: CD11b A-domain polypeptides; experiment: Conformation selectivity in counterscreen and dilution series ELISA; type: binding, human; details: conclusion from ELISA data
# Method: as §1
# High binding clones were included in a counterscreen ELISA against other CD11b A-domain polypetides which produced the following data:
# To confirm binding, a dilution series experiment was carried out. Select clones were subjected to a dilution series which generated the following data: […]
molecule,measurement,setting,value
B1,"ELISA absorbance at 450 nM, Blocked well",[1],0.049
same,Selectivity of binding to CD11b A-domain polypeptides mutationally stabilized in active conformation over the other conformations,[2],limited or no selectivity
